Here are results for 82 compounds from PubChem BioAssay AID1645887 (National Center for Advancing Translational Sciences (NCATS), 2021).

SMILES strings stand for the structures. Several values for one entry are separate records, joined by “and”; a condition that tells them apart may be missing. Identical values can stand only once. Out of some 16,000 compounds screened, about 40 (0.2%) were called active. Inconclusive results (about 1%) are left out. Calls follow the shape of the dose curve; as a rule, active = well fitted activation curve with a large enough effect; inconclusive = small, poorly fitted or top-dose-only effect, or another doubt; inactive = no such curve, though single readings can be large or run the other way. Some of the results follow.
% is scaled to controls: 0 for no effect and ±100 for the full control effect.

Chain of UniProt Q8WZA2 (Q8WZA2 whole entry, looked up): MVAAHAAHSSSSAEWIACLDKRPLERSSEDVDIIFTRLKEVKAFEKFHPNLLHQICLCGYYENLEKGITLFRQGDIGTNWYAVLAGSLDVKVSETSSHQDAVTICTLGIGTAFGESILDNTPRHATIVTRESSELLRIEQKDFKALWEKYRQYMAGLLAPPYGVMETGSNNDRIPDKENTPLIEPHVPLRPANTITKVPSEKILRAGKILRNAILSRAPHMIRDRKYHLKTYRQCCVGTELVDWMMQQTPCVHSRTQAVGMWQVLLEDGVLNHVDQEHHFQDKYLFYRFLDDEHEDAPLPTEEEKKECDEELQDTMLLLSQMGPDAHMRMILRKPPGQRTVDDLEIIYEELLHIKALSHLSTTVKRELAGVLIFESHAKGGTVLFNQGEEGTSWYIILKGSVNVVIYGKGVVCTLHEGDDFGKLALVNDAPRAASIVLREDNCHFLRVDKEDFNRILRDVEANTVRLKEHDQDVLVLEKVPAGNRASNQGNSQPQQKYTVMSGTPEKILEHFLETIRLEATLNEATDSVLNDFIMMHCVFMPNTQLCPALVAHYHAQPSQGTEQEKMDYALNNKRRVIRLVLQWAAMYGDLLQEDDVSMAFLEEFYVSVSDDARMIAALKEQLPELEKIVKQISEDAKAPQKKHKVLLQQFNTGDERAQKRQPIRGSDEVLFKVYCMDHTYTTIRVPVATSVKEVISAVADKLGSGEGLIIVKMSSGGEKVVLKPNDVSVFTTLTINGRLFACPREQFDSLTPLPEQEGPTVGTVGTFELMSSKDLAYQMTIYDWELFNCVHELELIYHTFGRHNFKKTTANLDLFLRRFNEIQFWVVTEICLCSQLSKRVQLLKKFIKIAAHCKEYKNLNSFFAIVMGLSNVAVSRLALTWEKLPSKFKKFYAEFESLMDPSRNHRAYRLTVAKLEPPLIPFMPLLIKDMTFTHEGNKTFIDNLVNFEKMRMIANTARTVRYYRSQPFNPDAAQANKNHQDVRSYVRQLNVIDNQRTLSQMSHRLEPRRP

The target in this assay is Rap guanine nucleotide exchange factor 4 (Homo sapiens) (UniProt Q8WZA2). Briefly: Validation qHTS for agonist of cAMP-regulated guanine nucleotide exchange factor 4 (EPAC2).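 Also: exchange makes BODIPY-GDP fluorescence drop when released from Rap1B; series mostly up to about 150 µM.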 The conditions noted are these: EPAC2 Rap1B BODIPY-GDP exchange, fluorescence; activation: stronger effect = higher value. The essentials:
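Signal normalized against 6.5 mM cAMP as agonist control. Mix of EPAC2 (100 nM), RAP1B-BODIPY-GDP (250 nM) and GDP (50 uM) was read kinetically at 480/540 nm, every 5 min over 30 min, after 5 min room-temperature incubation with compound.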
Background: In qHTS, concentration-response curves come from the screen itself.
Turning to `CCCCC[C@H](O)/C=C/[C@@H]1[C@@H](CCCCCCC(=O)O)[C@@H](O)C[C@H]1O`, the activation was inactive: -1.84%.
Turning to `COC(=O)N1CCC2(CC1)CN(c1ccccc1)C2`, the activation is inactive: -14.8%.
Turning to `OC1(c2ccc3c(c2)CN(Cc2ccccn2)CCO3)CCN(c2ccccc2F)CC1`, the activation is inactive: -53.2%.
Turning to `CN(C)Cc1ccccc1-c1cncnc1NCc1ccccc1`, the activation is inactive: -18.5%.
As to `Brc1ccccc1-c1ccccc1`, the activation is inactive: -18.1%.
Regarding `N#Cc1ccc(CN2CCCC3(CCN(C(=O)c4cccc(F)c4)CC3)C2)cc1`, the activation was inactive: -1.26%.
As for `CCOc1nc2cccc(C(=O)OC(C)OC(=O)OC3CCCCC3)c2n1Cc1ccc(-c2ccccc2-c2nn[nH]n2)cc1` (configuration not stated), the activation is inactive: -25.3%.
Take `CN(C)Cc1ccccc1-c1ccc2ncnc(NC3CC3)c2c1`: the activation is inactive: -14.1%.
Consider `O=C(Nc1ccccc1)N1CC2(CCN(C(=O)c3cc(C(F)(F)F)cc(C(F)(F)F)c3)CC2)C1`, for which the activation is inactive: -13.7%.
On to `COC(=O)C1CCN(Cc2ccc3c(c2)CN(C(=O)c2cc4ccccc4n2C)CCO3)CC1`, for which the activation is inactive: 3.37%.
Under `Clc1ccc(-c2nc3sccn3c2/C=N/OCc2ccc(Cl)c(Cl)c2)cc1` stands inactive: -2.79% and inactive: -3.14%; under `COc1ccc(C(=O)N2CCC3(CCCN(Cc4ccccc4)C3)CC2)cc1`, inactive: 1.23%.
Under `COC(=O)N1CCC[C@@]2(CCN(c3ncccn3)C2)C1` stands inactive: -5.67%.
As for `CCCCCCCCCCCCC(C(=O)O)C(C)C(=O)O` (configuration not stated), the activation was inactive: 3.23%.
Under `Cn1c(=O)c(-c2ccc(Cl)cc2)nc2cnc(N3CCNCC3)nc21` stands inactive: -4.04%.
For `Nc1ccc(S(N)(=O)=O)cc1`, the activation is inactive: -28.5% and inactive: 5.77%.
With `Cc1noc(C)c1-c1nc(N(C)Cc2ccco2)c2ccccc2n1`, the activation is inactive: -0.847%.
Turning to `CCCCCCCCCCCCN1[C@@H](CC(=O)O)c2cc(C(F)(F)F)ccc2S1(=O)=O`, the activation is inactive: -46.3%.
Under `CCOC(=O)N1CCN(Cc2ccc3c(c2)CN(C(=O)c2cc(-c4ccccc4)on2)CCO3)CC1` stands inactive: -4.1%; under `CC1CCN(CCCC(=O)c2ccc(F)cc2)CC1`, inactive: -0.441%; under `N#CCCn1c(=O)c(-c2ccccc2)nc2cnc(Oc3ccccc3)nc21`, inactive: -17%.
For `Cc1oc(-c2ccccc2NC(=O)C2CCC2)nc1CNC(=O)c1ccc2ccccc2c1`, the activation was inactive: 3.25%.
As for `Cc1cc(C(=O)Nc2cccc(-c3nc(CNC(=O)c4cnccn4)c(C)o3)c2)c(C)o1`, the activation was inactive: -11.3%.
Consider `O=c1cc(O)cc(/C=C/c2ccc(O)c(O)c2)o1`, for which the activation was inactive: -32.9%.
As to `O=C(c1csnn1)N1CCC2(CC1)CCN(C(c1ccccc1)c1ccccc1)CC2`, the activation was inactive: -1.4%.
Turning to `CC(CCc1ccc(O)cc1)NCCc1ccc(O)c(O)c1` (configuration not stated), the activation is inactive: -13.6% and inactive: -31.5%.
Take `Cc1cnc(C)c(-c2cccc3c2OC(CNC(=O)c2cc(C)on2)C3)n1` (configuration not stated): the activation is inactive: -15.5%.
Under `Cc1cn([C@H]2C[C@H](O)[C@@H](CO)O2)c(=O)[nH]c1=O` stands inactive: -6.9% and inactive: 7.69%.
Regarding `c1ccc(Nc2ncnc3ccc(-c4ccoc4)cc23)cc1`, the activation is inactive: -7.75%.
With `CC(C)NC(=O)N1CCC2(CC1)CCN(S(=O)(=O)c1ccccc1)CC2` the figure was inactive: -7.09%.
Turning to `CNc1cc(-c2ccccc2C(F)(F)F)ncn1`, the activation is inactive: -1.8%.
As to `N[C@@H](Cn1cc(F)c(=O)[nH]c1=O)C(=O)O`, the activation was inactive: 1.99%.
Consider `O=C(O)/C=C/c1ccccc1`, for which the activation was inactive: 1.23%.
As to `CC(C)CN1CCC(=O)N(CCC#N)CC1`, the activation is inactive: -20.3%.
`O=c1c(-c2cccs2)nc2cnc(Nc3ccccc3)nc2n1C[C@H]1CCCO1`: the activation was inactive: -10%.
With `COc1cc(Br)c(C[N+]2(CCOCCC3CCC4CC3C4(C)C)CCOCC2)cc1OC` (configuration not stated) the figure was inactive: -11.2%.
Under `CC1=C(C(=O)OCCN(Cc2ccccc2)c2ccccc2)C(c2cccc([N+](=O)[O-])c2)C(P2(=O)OCC(C)(C)CO2)=C(C)N1` (configuration not stated) stands inactive: 1.75%.
Consider `Cc1c(C(=O)NC(C)(C)C)sc2ncnc(NCCN(C)C)c12`, for which the activation is inactive: 4.81%.
With `O=C1CCN(Cc2ccccc2)CCN1[C@H](CO)Cc1ccccc1` the figure was inactive: -7.47% and inactive: -14.7%; with `C[C@H](N)CCCP(=O)(O)O`, inactive: 1.72%; with `COc1cccc(Cn2c(=O)c(-c3ccc(F)cc3)nc3cnc(OC)nc32)c1`, inactive: -5.73%.
With `CCCC(=O)O[C@]1(C(=O)CCl)[C@H](C)C[C@@H]2[C@H]3CCC4=CC(=O)C=C[C@]4(C)[C@@]3(F)C(=O)C[C@@]21C`, the activation was inactive: 0.294%.
Regarding `O=C(c1ccco1)N1CCC[C@@]2(CCN(c3ccccn3)C2)C1`, the activation is inactive: -16.5%.
As for `CC(O)(C(=O)Nc1ccc(S(=O)(=O)c2ccccc2)cc1)C(F)(F)F` (configuration not stated), the activation was inactive: -5.27% and inactive: 2.57%.
Turning to `O=C(C1CC12CCN(Cc1cccc3cccnc13)CC2)N1CCN(Cc2cccs2)CC1` (configuration not stated), the activation is inactive: 0.679%.
In the case of `CC(=O)OC[C@@]12C(=O)[C@@H](O)[C@@H](C)[C@]3(C[C@@H](c4ccoc4)O[C@@H]3OC(C)=O)[C@H]1CCC[C@]21CO1`, the activation is inactive: -13.2%.
Under `O=C(OC1Cc2c(O)cc(O)cc2OC1c1cc(O)c(O)c(O)c1-c1c(C2Oc3cc(O)cc(O)c3CC2OC(=O)c2cc(O)c(O)c(O)c2)cc(O)c(O)c1O)c1cc(O)c(O)c(O)c1` (configuration not stated) stands inactive: -23%; under `C=C[C@]1(C)C[C@@H](OC(=O)CSCCN(CC)CC)[C@]2(C)[C@H](C)CC[C@]3(CCC(=O)[C@H]32)[C@@H](C)[C@@H]1O`, inactive: -8.38%; under `CC(C)N(CCC(=O)c1ccc2ccccc2c1)Cc1ccccc1`, inactive: -19.1% and inactive: -25.7%.
Take `CC(c1ccon1)N(C)C(=O)c1cnn(-c2ncc3c(n2)-c2ccccc2CC3)c1C1CC1` (configuration not stated): the activation was inactive: -17.5%.
Regarding `CCC(C)(C)c1ccc(CC(C)CN2C[C@@H](C)O[C@@H](C)C2)cc1` (some centres not stated), the activation is inactive: 3.42%.
In the case of `COC(=O)[C@@H]1CCCN1Cc1ccc2c(c1)CN(Cc1ccc3c(c1)CCCN3C)CCO2`, the activation is inactive: 3.95%.
In the case of `CSc1ccc(/C=C2/C(C)=C(CC(=O)O)c3cc(F)ccc32)cc1`, the activation is inactive: -15.8%.
With `Cc1cccc(CNC(=O)c2cnn(-c3nccc(-c4cc(C)sc4C)n3)c2C)n1` the figure was inactive: -4.33%.
With `COc1cccc(C(=O)N2CCCC(c3nc(SCCN4CCOCC4)ncc3C)C2)c1` (configuration not stated) the figure was inactive: -7%; with `C[N+]1(CC2COC(c3ccccc3)(C3CCCCC3)O2)CCCCC1` (configuration not stated), inactive: -10.6%; with `Cc1c(C(=O)N(C)CC2CCCN(C)C2)cnn1-c1nccc(-c2ccco2)n1` (configuration not stated), inactive: 1.23%.
For the compound `CC[C@]12CCCN3CCc4c(n(c5ccccc45)[C@@](O)(C(=O)OC)C1)[C@@H]32`, the activation was inactive: -13.8%.
Under `c1ccc2c(N3CCOCC3)nc(-c3ccoc3)nc2c1` stands inactive: -26.9%; under `COCC(=O)Nc1cc(C(=O)N2CCc3sccc3C2)c2c(c1)nc(-c1ccncc1)n2C`, inactive: -17.1%; under `O=c1c(-c2cccc(Cl)c2)nc2cncnc2n1Cc1ccccc1Cl`, inactive: 6.65%.
For `CCc1noc(C)c1C(=O)N1CCOc2ccc(CN3CCN(c4ccccn4)CC3)cc2C1`, the activation was inactive: -10.3%.
On to `O=C(Nc1cccc(N2CCC(NCc3cnn(-c4cccc(F)c4)c3)CC2)c1)c1ccncc1`, for which the activation is inactive: -8.59%.
As for `C=CC(=O)c1ccc(CCCCCC)cc1`, the activation was inactive: -15.8%.
As to `COCCn1c(=O)c(-c2cccs2)nc2cnc(Nc3ccccc3)nc21`, the activation was inactive: 29.5%.
With `Cc1nc2cnc(N(C)C)nc2n(CCC#N)c1=O`, the activation is inactive: 6.85%.
Take `COc1ccc(NC(=O)N2CC[C@@]3(CCCN(C(=O)c4cccn4C)C3)C2)cc1`: the activation was inactive: -19.3%.
In the case of `Cc1cc(C)n(-c2ccc(C(=O)NCC3Cc4cc(-c5cnccn5)ccc4O3)cc2)n1` (configuration not stated), the activation was inactive: 7.12%.
On to `COc1ccc2c(c1)OCC(Cc1ccc(OC)c(OC)c1)C2=O` (configuration not stated), for which the activation was inactive: -4.48%.
Under `COc1cccc(C(=O)O[C@H]2[C@H](Cc3ccccc3)NS(=O)(=O)[C@H]3C[C@@H]4C=C[C@]23O4)c1` stands inactive: -33%; under `COc1cc(=O)n2c(c1C(=O)N(C)Cc1cscn1)CCN(Cc1ccc3c(c1)OCCO3)CC2`, inactive: -0.355%.
Regarding `CNC(=O)[C@@H]1C[C@H](NC2CCCCCCC2)CN1Cc1cccc(OC)c1OC`, the activation was inactive: -12.1%.
Under `Cc1cc(=O)c(C(=O)NCCCc2ccncc2)c2n1-c1ccccc1SC(c1cccs1)C2` (configuration not stated) stands inactive: 2.79%; under `Cn1cccc1C(=O)N1CCC2(CCN(Cc3nccs3)CC2)CC1`, inactive: -6.89%.
On to `O=c1[nH]c(=O)n([C@H]2C[C@H](O)[C@@H](CO)O2)cc1/C=C/Br`, for which the activation is inactive: 0.354%.
For `CN1CCN(c2ncc3nc(-c4cc(F)cc(F)c4)c(=O)n(C4CC4)c3n2)CC1`, the activation is inactive: -9.77%.
For `COc1cccc(CN2C(=O)NC(C)(C3CCN(Cc4cccc(O)c4)CC3)C2=O)c1OC` (configuration not stated), the activation is inactive: -13.6%.
With `CC(C)Cc1cc(C(=O)NCC2Cc3cc(F)cc(-c4ccccn4)c3O2)no1` (configuration not stated), the activation was inactive: -10.9%.
On to `Cc1cnc(CNC(=O)c2c3n(c(C)cc2=O)-c2ccccc2SC(c2ccsc2)C3)cn1` (configuration not stated), for which the activation is inactive: -11.6%.
As for `CN1CCN(c2nc(-c3ccoc3)nc3ccccc23)CC1`, the activation is inactive: -8.21%.
With `COc1ccccc1C1CN(Cc2c(C)nc3sccn23)Cc2ccccc2O1` (configuration not stated) the figure was inactive: 11.7%; with `CNC[C@@H]1CC[C@@H](N)[C@@H](O[C@H]2[C@H](O)[C@@H](O[C@H]3OC[C@](C)(O)[C@H](NC)[C@H]3O)[C@H](N)C[C@@H]2N)O1`, inactive: -7.5%.
